Assay results taken from the supplement of paper PMC3334620.
Whole data set: some 33,000 sequences, median “E-score (-0.5 to 0.5)” near -0.016, cut for the highest 2% near 0.32. The list shows a part of the results.

Biological target: T1, Stp1 (UniProt B3LFK1)
T1 sequence: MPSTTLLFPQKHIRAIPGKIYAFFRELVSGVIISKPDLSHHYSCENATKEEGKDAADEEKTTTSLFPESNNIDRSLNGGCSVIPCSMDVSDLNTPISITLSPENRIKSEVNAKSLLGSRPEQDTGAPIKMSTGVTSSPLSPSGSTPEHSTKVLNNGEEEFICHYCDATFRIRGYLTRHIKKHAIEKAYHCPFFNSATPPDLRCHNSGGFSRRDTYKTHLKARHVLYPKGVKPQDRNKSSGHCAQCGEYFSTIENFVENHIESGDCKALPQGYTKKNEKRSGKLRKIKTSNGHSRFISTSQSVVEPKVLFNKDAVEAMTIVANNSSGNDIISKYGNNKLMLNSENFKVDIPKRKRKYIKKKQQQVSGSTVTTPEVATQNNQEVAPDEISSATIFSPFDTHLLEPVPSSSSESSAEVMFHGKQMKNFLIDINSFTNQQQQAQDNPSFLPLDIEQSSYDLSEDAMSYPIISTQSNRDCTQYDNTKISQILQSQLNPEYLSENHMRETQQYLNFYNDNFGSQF
Assay: PBM E-score (8-mer binding enrichment) (E-score (-0.5 to 0.5)); higher = stronger / more preferred TF binding; most listed sequences are background and not binding sites
Settings: protein concentration: 200 nM; construct: GST-full length
Method: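 Universal 'all 10-mer' protein binding microarrays (Agilent AMADID 015681) probed with GST-tagged S. cerevisiae TFs (full-length or DBD) made by in vitro transcription/translation (PURExpress), about 100-200 nM. Bound TF was detected with fluorescent anti-GST. Each ungapped 8-mer (which stands for itself and its reverse complement) is scored by the PBM enrichment score (E-score), a modified Wilcoxon-Mann-Whitney statistic from -0.5 to +0.5, computed with the Universal PBM Analysis Suite. Scale: above 0.35 generally sequence-specific binding.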

| Sequence | PBM E-score |
| --- | --- |
| GAATTGAC | 0.0103 |
| GAAGGAGC | -0.324 |
| ACATCTGG | 0.0279 |
| TCGAACAA | 0.178 |
| CGTGGGAC | -0.109 |
| CTGGCTCA | -0.00983 |
| AATATAGG | 0.132 |
| CGTCCTTA | -0.0597 |
| GCTATTCC | -0.114 |
| GCGGGTCC | -0.307 |
| GCCCCACA | -0.0158 |
| AACAAGCC | 0.0514 |
| AAAGAGCG | -0.102 |
| ACGGTATG | 0.114 |
| AGTTACCG | 0.0589 |
| ATCGCTAC | -0.0953 |
| AAATCAAA | 0.159 |
| TGAACCAA | 0.143 |
| AGTTTGTC | -0.0407 |
| GAGTGCTA | -0.221 |
| AACTCCGG | 0.0786 |
| CGCGCTCC | 0.103 |

| Sequence | PBM E-score |
| --- | --- |
| CTGATCCA | -0.109 |
| ACATCAAG | -0.0578 |
| ATCTATAG | -0.0323 |
| GTAGACAA | 0.0381 |
| GCGTATAA | 0.174 |
| CATATTCG | 0.0652 |
| ACCTTCTG | -0.123 |
| GAGTTCCC | -0.255 |
| AGAGTATA | 0.0782 |
| ATGAGCCG | 0.223 |
| ACATAATC | 0.073 |
| CTATCTCA | 0.00699 |
| AGACTTTC | -0.256 |
| AAACCCCC | -0.269 |
| AGAGGAAT | -0.215 |
| CAGTTCTC | -0.122 |
| GATGCGTA | 0.0725 |
| ATGCCCTG | 0.106 |
| CAAGCTTG | -0.216 |
| ATTCTACG | 0.19 |
| GCGCCGCC | 0.454 |
| GTAAGGTA | 0.0482 |

| Sequence | PBM E-score |
| --- | --- |
| GTCGGAAA | 0.111 |
| GTGTACTA | -0.0337 |
| CGCCCGTC | 0.133 |
| AATACGGG | -0.0327 |
| CTCGGGTA | -0.118 |
| ACAGGTCA | -0.274 |
| ACAGCGCC | 0.249 |
| AAGACCTA | -0.0977 |
| AATTTCAT | 0.0595 |
| CGGGACCA | -0.276 |
| ATTCCCCG | -0.156 |
| CACTGCTG | -0.094 |
| CATTTGAG | 0.112 |
| AAAGAAAT | 0.128 |
| CACTTACA | 0.15 |
| CCCTATCC | -0.236 |
| GCTGTCGA | -0.0776 |
| ACCGACAA | 0.0811 |
| AAAAAGCG | 0.178 |
| GGGGCTCA | -0.354 |
| CTGAGTGA | 0.0819 |
| AGTAGATC | -0.159 |

| Sequence | PBM E-score |
| --- | --- |
| CAACAGTA | -0.0637 |
| AATATTCA | 0.128 |
| AAGTCCCA | -0.253 |
| AAAGTTCC | -0.0752 |
| AACGAAAG | 0.148 |
| GGGGTGGA | -0.336 |
| CATTGGTC | -0.218 |
| CACAAATC | 0.127 |
| GTTTTCGA | 0.0662 |
| CGTGAGCC | -0.0735 |
| CTAAGATA | 0.0936 |
| CACCTCTC | -0.219 |
| ATGTGTCG | -0.00911 |
| CAGTTCGG | 0.127 |
| AGTTTATG | 0.0225 |
| GAGCCGGC | 0.0741 |
| TCATGAAA | 0.0814 |
| TGTGTGAA | 0.185 |
| ACCTTGGG | -0.193 |
| AGGTGGCG | -0.0008 |
